Assay results as given in PubChem BioAssay AID488969 (Vanderbilt High Throughput Screening Facility, 2010).
Whole data set: some 110,000 compounds, median “z-score” near -0.1, cut for the highest 2% near 2. The list shows a part of the results. Calls of active or inactive are those of the source.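 How the source made its calls: active means z-score in the third read window above 3 or below -3; inactive means the rest.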

biological target: Metabotropic glutamate receptor 8 (Rattus norvegicus) (UniProt P70579); experiment: rat mGluR8 modulators via GIRK flux, primary screen, cell-based, thallium flux, HTS (AID 488969); conditions: HEK293 rat mGluR8, GIRK (G protein-gated inwardly rectifying potassium channel) thallium flux, FluoZin2; at 10 µM; stronger effect = higher value; submaximal glutamate (EC20) added with thallium
Sequence of UniProt P70579 (P70579 whole entry, looked up): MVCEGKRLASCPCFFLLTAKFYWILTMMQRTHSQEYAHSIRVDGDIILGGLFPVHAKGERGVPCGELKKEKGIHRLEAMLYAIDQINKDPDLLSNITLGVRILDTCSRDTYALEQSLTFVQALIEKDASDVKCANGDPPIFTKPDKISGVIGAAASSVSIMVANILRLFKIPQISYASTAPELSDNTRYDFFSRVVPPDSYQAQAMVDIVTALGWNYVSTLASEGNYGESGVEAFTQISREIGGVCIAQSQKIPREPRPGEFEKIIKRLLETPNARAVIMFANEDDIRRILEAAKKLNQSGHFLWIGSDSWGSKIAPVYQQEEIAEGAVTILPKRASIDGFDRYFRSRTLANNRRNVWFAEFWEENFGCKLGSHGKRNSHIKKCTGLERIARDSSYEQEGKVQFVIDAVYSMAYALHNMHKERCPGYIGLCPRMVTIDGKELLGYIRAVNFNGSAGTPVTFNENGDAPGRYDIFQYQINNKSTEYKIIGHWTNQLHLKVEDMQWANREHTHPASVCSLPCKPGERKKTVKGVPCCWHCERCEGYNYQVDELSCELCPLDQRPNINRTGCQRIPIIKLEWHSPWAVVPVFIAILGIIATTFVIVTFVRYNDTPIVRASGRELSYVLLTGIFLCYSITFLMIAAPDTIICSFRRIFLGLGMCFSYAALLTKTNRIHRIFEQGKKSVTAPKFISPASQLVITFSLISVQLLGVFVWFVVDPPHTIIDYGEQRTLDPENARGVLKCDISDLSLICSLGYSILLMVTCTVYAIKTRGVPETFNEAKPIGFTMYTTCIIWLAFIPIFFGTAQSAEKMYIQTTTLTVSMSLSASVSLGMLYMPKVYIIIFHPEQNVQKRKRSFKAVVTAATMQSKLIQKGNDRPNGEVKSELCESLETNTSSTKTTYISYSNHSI

In order of rising z-score:
1. CC(C)CC1C(C#N)=C(N)Oc2n[nH]c(-c3cccs3)c21 (stereo unspecified)  -2.24
2. CCn1c(SCC(=O)OCc2ccccc2)nnc1-c1ccco1  -1.54
3. Cc1cc2c(n1-c1ccc(Cl)cc1)CC(C)(C)CC2=O  -1.28
4. CS(=O)(=O)N(Cc1ccccc1)c1ccc(C(=O)N2CCc3ccccc3C2)cc1  -1.2
5. N#C/C(=C\c1c(N2CCCCC2)nc2ccccn2c1=O)C(=O)NCc1ccco1  -0.855
6. O=C(CSc1nnc(-c2ccccc2O)o1)Oc1ccc(Br)cc1  -0.839
7. Cc1cc(NC(CC(C)C)C(=O)O)nc(Cc2ccccc2)n1 (stereo unspecified)  -0.583
8. COc1ccc(Cl)cc1C(=O)NCc1cn(C)nc1C  -0.575
9. COc1ccccc1N(CC(=O)Nc1cccnc1)S(C)(=O)=O  -0.573
10. CS(=O)(=O)N(Cc1ccc(Cl)cc1)c1ccc(C(=O)N2CCN(c3ccccc3)CC2)cc1  -0.563
11. NS(=O)(=O)c1ccc(CCNc2nc(CN3CCOCC3)nc3sc4c(c23)CCC4)cc1  -0.549
12. Cc1ccccc1N=Cc1cc2c(cc1O)OC(N)=C(C#N)C2c1ccccc1 (stereo unspecified)  -0.548
13. CCOC(=O)N1CCN(c2ccc(C(=O)CC)cc2F)CC1  -0.508
14. Nc1ccnn1Cc1ccc(Br)s1  -0.502
15. CCOc1cc2[nH]c(=S)n(Cc3ccc(C(=O)NCCOC)cc3)c(=O)c2cc1OCC  -0.495
16. CCOC(=O)C1CCN(C(=O)c2cnn3c(C)cc(C)nc23)CC1  -0.493
17. CCc1ccccc1NC(=O)c1onc(C)c1Cl  -0.446
18. Brc1ccc(Oc2nsnc2N2CCOCC2)cc1  -0.407
19. Cc1cc(C(=O)NCC(=O)OCC(=O)N(C2CCCCC2)C2CCCCC2)ccc1[N+](=O)[O-]  -0.388
20. O=C(CSc1nnc(-c2cccnc2)n1-c1ccccc1)Nc1ccccc1  -0.368
21. c1ccc(Oc2cccc(OCCCn3cncn3)c2)cc1  -0.364
22. Cc1ccc(C(=O)NC(N2CCCC2)C(Cl)(Cl)Cl)cc1 (stereo unspecified)  -0.364
23. CC(=O)N1CCN(Cc2nc3cc(NC(=O)c4ccccc4C)ccc3n2C)CC1  -0.36
24. Nc1nnc(CSc2ccc(Cl)cc2)s1  -0.359
25. COc1ccc(Br)cc1S(=O)(=O)NCc1ccccc1  -0.34
26. Cc1ccc(SCc2ccc(C(=O)NCc3cccnc3)cc2)cc1  -0.334
27. CC(C)=CCCC1=CCC(/C=N/NC(N)=O)C(C)C1 (stereo unspecified)  -0.318
28. O=C(Cn1cc(/C=N/O)c2ccccc21)N1CCOCC1  -0.312
29. Cc1nn(-c2ccccc2)c2sc(C(=O)OC3CCOC3=O)cc12 (stereo unspecified)  -0.284
30. O=C(COC(=O)c1cc(S(=O)(=O)N2CCOCC2)ccc1F)c1ccc[nH]1  -0.281
31. COC(=O)Nc1nnc(/C=C/c2ccccc2)s1  -0.268
32. Cc1ccc(NS(=O)(=O)c2cc(C(=O)NCc3ccccn3)ccc2Cl)cc1C  -0.261
33. CCOC(=O)c1cc2sccc2n1CC(=O)Nc1ccc(OC)cc1OC  -0.246
34. O=C(C1CC1)N1CCc2cc(S(=O)(=O)NC3CCN(Cc4ccccc4)CC3)ccc21  -0.243
35. CCC(=O)N1CCc2cc(S(=O)(=O)CCC(=O)NCCc3ccccc3)ccc21  -0.24
36. Cc1ccc(C(=O)C(OC(=O)CNC(=O)c2ccc(Cl)cc2)c2ccccc2)cc1 (stereo unspecified)  -0.207
37. Cc1cccc(C)c1NC(=O)c1ccc(CN2CCc3ccccc3C2)cc1  -0.199
38. Cc1nc(=O)c(-c2ccccc2)c(C)n1CCCO  -0.193
39. CC1(C)CC(=NOC(=O)c2ccccc2)CC(C)(C)N1O  -0.193
40. COc1ccc(C(=O)/C=C/c2cn(CC(O)CN3CCOCC3)c3ccccc23)cc1 (stereo unspecified)  -0.177
41. CSCCC(CO)NC(=O)OCc1ccccc1 (stereo unspecified)  -0.173
42. CCN1CCCC1CNC(=O)c1cc(NC(C)=O)c(N(C)C)cc1OC (stereo unspecified)  -0.154
43. O=C(CSCc1cnn(-c2ccccc2)c1-n1cccc1)N1CCN(Cc2ccccc2)CC1  -0.143
44. O=C(CSc1nc2ccccc2c(=O)n1-c1ccc(F)cc1)Nc1cc(S(=O)(=O)N2CCOCC2)ccc1Cl  -0.134
45. CC(C)(C)c1cc(-c2ccco2)c(C#N)c(SCC#N)n1  -0.116
46. COC(=O)c1cc(=O)n(CCc2ccccc2F)c(=Nc2ccc(F)c(Cl)c2)s1  -0.11
47. O=C(CCc1ccccc1)Nc1ccc(N2CCCCC2)cc1  -0.101
48. CN(CCOC(=O)c1cccc(F)c1)Cc1ccccc1  -0.083
49. COc1cccc(CNC(=O)C2CCC(CNS(=O)(=O)c3cccc4nsnc34)CC2)c1 (stereo unspecified)  -0.0786
50. Cc1nc(NC(=O)COc2ccccc2)sc1C(=O)Nc1ccccc1  -0.075
51. CC(C)N(C(=O)CN1C(=O)NC2(CCCCCC2)C1=O)C(C)C  -0.0714
52. CC(C(=O)N1CCCc2ccccc21)N1CCN(S(=O)(=O)c2ccccc2F)CC1 (stereo unspecified)  -0.0602
53. O=c1oc2c3c4c(cc2c(C(F)(F)F)c1CCN1CCOCC1)CCCN4CCC3  -0.0494
54. COc1ccc(C(=O)CSc2nccc(=O)[nH]2)cc1  -0.0441
55. C=CCn1c(NCc2cc(C)ccc2O)nc2ccccc21  -0.0349
56. O=C(Oc1c(Cl)cc(Cl)c2cccnc12)N1CCOCC1  -0.0144
57. COc1ccc2o/c(=N\O)c(C(=O)Nc3ccccc3OC)cc2c1  -0.0136
58. COc1cccc(/C=N/NC(=O)CN(C2=NS(=O)(=O)c3ccccc32)c2ccccc2)c1  -0.0121
59. O=C(Oc1ccccc1Cl)c1ccc(-n2cncn2)nc1  -0.0109
60. COc1ccc(C(C)=O)cc1CSc1nnc(Nc2ccc(C)cc2C)s1  -0.00598
61. CCn1ncc(/C=C/C(=O)NCc2cnn(C)c2C)c1C  -0.00194
62. O=P(c1ccc2c(c1)OCCO2)(N1CCOCC1)N1CCOCC1  0.00292
63. Cc1c(Cl)cnc(NC(=O)COC(=O)Cc2coc3ccc4ccccc4c23)c1Cl  0.0158
64. CCc1nnc(NC(=O)CSc2ncc(-c3ccccc3)[nH]2)s1  0.0205
65. COC(=O)c1ccc(NC(=S)Nc2ccc3ccccc3c2)cc1  0.0296
66. Cc1ccc(C2C(C#N)=C(N)Oc3n[nH]c(-c4cccs4)c32)cc1 (stereo unspecified)  0.0389
67. CCc1nnc(N2C(=O)c3cccc4cccc(c34)C2=O)s1  0.0435
68. CCNC(=O)c1ccc(-n2nc(C(F)(F)F)c3c2CCCC3)cc1  0.0724
69. CCOC(=O)Cc1c(C)nc2cc(-c3ccc(C)cc3)[nH]n2c1=O  0.0804
70. CC1CCCN(CCOc2ccc(Br)cc2)C1 (stereo unspecified)  0.0919
71. Cc1ccc(CNC(=O)c2ccc(Cl)cc2[N+](=O)[O-])cc1  0.104
72. CCOC(=O)C1=C(C)NC(C)=C(C(=O)OCC)C1c1cn(-c2ccccc2)nc1-c1ccco1  0.105
73. CCCC(=O)Nc1ccccc1NC(=O)CN(C)S(=O)(=O)c1ccc(C)cc1  0.121
74. Cc1ccc(Nc2nc(Nc3ccc(C)cc3)nc(SC3=NCCS3)n2)cc1  0.127
75. COc1cccc2c(=O)n(CC(=O)N3CCC(C)CC3)ccc12  0.139
76. N#Cc1c(N2CCCCC2)nc(N2CCCCC2)c2c1CCN(Cc1ccccc1)C2  0.139
77. COc1ccc2c(c1)C(NC(=O)C(F)(F)F)CC2=O (stereo unspecified)  0.142
78. CCn1c(NCc2ccccn2)nc2c1c(=O)n(C)c(=O)n2C  0.144
79. Cc1ccccc1OCC(=O)OC(C(=O)c1ccccc1)c1ccccc1 (stereo unspecified)  0.144
80. COc1ccc(OCCN2C(=O)NC3(CCc4ccccc4C3)C2=O)cc1 (stereo unspecified)  0.153
81. CC(C)C(=O)N(Cc1ccccc1)c1ccccn1  0.16
82. COc1ccc(-c2nn(-c3ccccc3)cc2C(=O)O)cc1OC  0.191
83. O=C(c1ccccn1)N(Cc1ccco1)C1(C(=O)NC2CCCCC2)CCCCC1  0.227
84. N=C(N)CCCOc1ccccc1-c1ccccc1  0.24
85. O=S(=O)(NCc1cc(-c2ccccc2)no1)c1ccc(Cl)cc1  0.245
86. COc1ccc(NC(=O)CSc2ncnc3c2cnn3Cc2ccccc2)cc1OC  0.253
87. COc1ccc(Cl)cc1NC(=S)NCc1ccco1  0.347
88. NC(=O)/C(=N\OC(=O)c1ccco1)c1nc(-c2ccc(Br)cc2)cs1  0.35
89. COCCN1C(=O)C(=O)/C(=C(/O)c2cccc(OC)c2)C1c1ccncc1 (stereo unspecified)  0.382
90. CCOP(=O)(c1ccccc1)C1(O)CCCCC1 (stereo unspecified)  0.442
91. Cn1c(=O)c2c(nc(NCc3cccnc3)n2Cc2ccc(Cl)cc2)n(C)c1=O  0.445
92. COc1cccc(-c2ccc(-c3noc(-c4cccs4)n3)c(OC)n2)c1  0.465
93. CCOc1ccc2cc(S(=O)(=O)N3CCN(C)CC3)ccc2c1  0.586
94. c1ccc(-n2ncc3c(NCCN4CCCCC4)ncnc32)cc1  0.62
95. COCCCNc1nc(SCc2ccccc2)nc2sc3c(c12)CCC3  0.635
96. CCOC(=O)CCCOC(=O)c1ccc(S(=O)(=O)N(C)C)cc1  0.718
97. CCN(CC)CC#CCC(C)(c1ccccc1)c1ccccc1  0.762
98. COc1cc(C(=O)OCC(=O)NCc2ccc(F)cc2)cc(NC(=O)c2cccs2)c1OC  0.786
99. Cc1cc(C)n(Cc2ccc(Cl)c(Cl)c2)c(=O)c1S(=O)(=O)c1ccccc1  0.922
100. CCOC(=O)c1ccc(NC(=O)Cn2nnc3ccccc32)cc1  0.966
101. CCCCOc1cccc(C(=O)NNC(=S)NC2CCCCC2)c1  0.969
102. CCOC(=O)c1ccc(N2C(=O)CC(N3CCC(Nc4ccc(F)cc4)CC3)C2=O)cc1 (stereo unspecified)  0.975
103. O=C(Nc1ccc2c(c1)Cc1ccccc1-2)c1ccco1  1.23
104. CCCCOC(=O)C1C2C=C[C@]3(CN(CCCOC)C(=O)[C@H]13)O2 (stereo partly specified)  1.34
105. CCn1cc(C(=O)NCC2CCCO2)c(=O)c2cc(S(=O)(=O)N3CCCCC3)ccc21 (stereo unspecified)  1.37
106. Cc1ccc(Nc2c(-c3ccc(C)o3)nc3cnccn23)cc1  2.11
107. CCc1ccc2c(c1)c(N=NC1=NC(=O)CS1)c(O)n2CC  2.98

In the case of `CCCc1nc2scc(-c3ccccc3)c2c(=O)n1N`, the z-score is reported as active: -3.26.
For `Cc1cccc2c1nc(-c1ccccc1)n1cnnc21`, the z-score was active: -3.97.
In the case of `CC(C)Sc1nc2c(c(=O)[nH]1)C(c1cccs1)C1=C(CC(C)(C)CC1=O)N2` (stereo unspecified), the z-score is reported as active: -3.58.
With `CC(C)CC(=O)Nc1ccccc1-c1nnn(CC(=O)N2CCc3ccccc3C2)n1` the z-score was active: -3.36.
